Experimental data taken from PubChem BioAssay AID504832 (National Center for Advancing Translational Sciences (NCATS), 2011).
Out of some 310,000 compounds screened, about 18,000 (5.8%) were called active. The inconclusive results got no clear call from the source; some entries with a clear call stand among them for comparison. Calls follow the shape of the dose curve; as a rule, active = well fitted inhibition curve with a large enough effect; inconclusive = small, poorly fitted or top-dose-only effect, or another doubt; inactive = no such curve, though single readings can be large or run the other way. No potency is given beside an inconclusive call; the fits are too rough.

Assay: Primary qHTS for delayed death inhibitors of the malarial parasite plastid, 48 hour incubation
Conditions: P. falciparum luciferase growth in erythrocytes; series mostly up to 28.7 µM
Summary of the method: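 Read-out is firefly luciferase luminescence from an integrated reporter in P. falciparum, so falling signal marks reduced parasite growth. Infected erythrocytes were at 2% hematocrit and 0.1% parasitemia (final) in Albumax-supplemented RPMI 1640.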
Potency is read from the fitted curve at half-maximal effect; tags tell the direction and shape of the fitted curve.

**Q.** With CCCC[C@@H]1CNCCN1CC1(c2ccccc2)CC1 as the compound, how does the Potency read?
**A.** Its Potency is inconclusive [inhibitor, partial curve, poor fit].

**Q.** For COc1cccc(Cn2cc(N)cn2)c1, which Potency is on record?
**A.** The Potency was inconclusive [inhibitor, partial curve].

**Q.** With CCOC(=O)c1ccc(NC(=O)c2nc[nH]c2C(=O)N2CCC(C)CC2)cc1 as the compound, how does the Potency read?
**A.** The Potency was inconclusive [inhibitor, single point].

**Q.** With NC(=S)N=Nc1c(O)[nH]c2cc(F)c(F)cc12 as the compound, how does the Potency read?
**A.** Its Potency is inconclusive [inhibitor, single point].

**Q.** For COC(=O)c1ccc(/C=C/C(=O)OCC(=O)Nc2ncc(Cl)cc2Cl)cc1, which Potency is on record?
**A.** The Potency was active: 11.7 µM.

**Q.** With Cc1cccc2sc(NC(=O)C3CCCO3)nc12 (stereo not drawn) as the compound, how does the Potency read?
**A.** The Potency was “inactive”.

**Q.** Which Potency does the source give for O=C(COc1ccccc1Cl)Nc1ccc(S(=O)(=O)N2CCOCC2)cc1 here?
**A.** Its Potency is inconclusive [inhibitor, partial curve].

**Q.** With Cc1ccccc1NC(=S)N(Cc1cccs1)C1CCCCC1 as the compound, how does the Potency read?
**A.** Its Potency is inconclusive [inhibitor, single point].

**Q.** For FC(F)(F)c1ccc(/C=N/N2CCN(Cc3cccc4ccccc34)CC2)cc1, which Potency is on record?
**A.** Its Potency is inconclusive [inhibitor, single point].

**Q.** Which Potency does the source give for CN(Cc1ccon1)C(=O)CCc1nnc(CCCCc2ccccc2)o1 here?
**A.** Its Potency is “inactive”.

**Q.** For OCCNc1cc(Cl)ncn1, which Potency is on record?
**A.** Its Potency is “inactive”.

**Q.** Which Potency does the source give for Cc1ccc(OCCNC(=O)CCNS(=O)(=O)c2ccc3ccccc3c2)cc1 here?
**A.** The Potency was inconclusive [inhibitor, single point].

**Q.** For O=C(c1ccc(C#CC2(O)CCCCC2)cc1)N1CCN(Cc2ccccc2)CC1, which Potency is on record?
**A.** The Potency was inconclusive [inhibitor, full curve, poor fit].

**Q.** With CCOc1ccc(-c2nc(CN(Cc3ccccc3)C[C@@H]3CCC(=O)N3)c(C)o2)cc1 as the compound, how does the Potency read?
**A.** Its Potency is inconclusive [inhibitor, partial curve, poor fit].

**Q.** For CCCNC(=O)CCc1c(C)nc2c(c(C)nn2-c2ccc(C)cc2)c1C, which Potency is on record?
**A.** Its Potency is inconclusive [inhibitor, single point].

**Q.** For CC(=O)Nc1ccc(S(=O)(=O)N2CCC(C(=O)NC3CC3)CC2)cc1, which Potency is on record?
**A.** Its Potency is “inactive”.

**Q.** Which Potency does the source give for Cc1cccc(CCNC(=O)c2cccc3c2C(=O)N(C2CCCCC2)C3)c1 here?
**A.** The Potency was inconclusive [inhibitor, partial curve, poor fit].

**Q.** With COC(=O)CN(c1nc(C)c(Br)c(OC)n1)S(=O)(=O)c1ccccc1 as the compound, how does the Potency read?
**A.** Its Potency is inconclusive [inhibitor, single point].

**Q.** With O=C(Nc1nc2c(s1)CN(Cc1ccccc1)CC2)c1cccc(S(=O)(=O)N2CCc3ccccc32)c1 as the compound, how does the Potency read?
**A.** Its Potency is inconclusive [inhibitor, partial curve].

**Q.** With CCc1nc2sc(C(C)=O)c(N)c2c2c1CCCC2 as the compound, how does the Potency read?
**A.** The Potency was “inactive”.

**Q.** For O=C(CCCn1c(SCc2cccc([N+](=O)[O-])c2)nc2ccccc2c1=O)NCC1CCCO1 (stereo not drawn), which Potency is on record?
**A.** Its Potency is inconclusive [inhibitor, single point].

**Q.** With Nc1nn(S(=O)(=O)c2ccccc2)cc1-c1ccc([N+](=O)[O-])cc1 as the compound, how does the Potency read?
**A.** Its Potency is inconclusive [inhibitor, single point].

**Q.** Which Potency does the source give for CCN1CCN(c2cc(C)nc(-c3ccccc3O)n2)CC1 here?
**A.** The Potency was inconclusive [inhibitor, full curve, poor fit].

**Q.** Which Potency does the source give for COc1ccc2sc(NC(=O)NC(=O)c3c(Cl)cccc3Cl)nc2c1 here?
**A.** Its Potency is active: 10.4 µM.

**Q.** Which Potency does the source give for CCOC(=O)c1ccc(N2CCCCC2)c(NS(=O)(=O)c2cccc(C(F)(F)F)c2)c1 here?
**A.** The Potency was active: 10.4 µM.

**Q.** With O=C(CNC(c1ccccc1)c1ccccc1)Nc1ccccc1F as the compound, how does the Potency read?
**A.** The Potency was inconclusive [inhibitor, single point].

**Q.** With COc1cccc(CN2C(=O)C3(C(C#N)=C(N)OC4=C3C(=O)CCC4)c3ccccc32)c1 (stereo not drawn) as the compound, how does the Potency read?
**A.** Its Potency is active: 4.15 µM.

**Q.** Which Potency does the source give for Cc1cc(Nc2cccc(F)c2)n2c(n1)nc1ccccc12 here?
**A.** The Potency was inconclusive [inhibitor, partial curve, poor fit].

**Q.** With CCOC(=O)CN1CCC(c2cc(-c3ccc(Cl)cc3)n[nH]2)CC1 as the compound, how does the Potency read?
**A.** Its Potency is “inactive”.

**Q.** For Cc1sc(=NC(=O)c2ccco2)n(C)c1-c1ccc(Cl)cc1, which Potency is on record?
**A.** The Potency was inconclusive [inhibitor, single point].

**Q.** Which Potency does the source give for CN(C)c1cccc(C(=O)N2CCC(n3nccc3NC(=O)C3CCOC3)CC2)c1 (stereo not drawn) here?
**A.** Its Potency is “inactive”.

**Q.** For CC1=Nc2cc(C(=O)N3CCC4(CC3)OCCO4)ccc2Sc2ccc(Cl)cc21, which Potency is on record?
**A.** Its Potency is inconclusive [inhibitor, single point].

**Q.** For CC1(C)Cc2nc(-c3ccccc3)nc(SCC(O)CO)c2CO1 (stereo not drawn), which Potency is on record?
**A.** Its Potency is “inactive”.

**Q.** Which Potency does the source give for C#CCOCCOCCOCCNc1nc(N2CCN(C(=O)[C@H](C)n3cc(CCCN=C(N)N)nn3)CC2)nc(N2CCN(C(=O)[C@H](CCCCN)n3cc(CCCC)nn3)CC2)n1 here?
**A.** Its Potency is inconclusive [inhibitor, partial curve].

**Q.** Which Potency does the source give for CCOC(=O)C1=C(C)Nc2ccccc2N/C1=N\S(=O)(=O)c1cccc(Cl)c1 here?
**A.** The Potency was inconclusive [inhibitor, single point].

**Q.** With Cc1ccc(/C=C/C(=O)OCC(=O)NCc2ccccc2)o1 as the compound, how does the Potency read?
**A.** The Potency was inconclusive [inhibitor, single point].

**Q.** With Cc1ccc(N=C2NC(=O)/C(=C/C=C/c3ccco3)S2)cc1C as the compound, how does the Potency read?
**A.** Its Potency is inconclusive [inhibitor, partial curve, poor fit].

**Q.** For CCCCN(C(=O)c1nn(C)c(=O)c2ccccc12)c1c(N)n(CC(C)C)c(=O)[nH]c1=O, which Potency is on record?
**A.** Its Potency is “inactive”.

**Q.** With O=C(NCCc1ccc(Cl)cc1Cl)c1cc([N+](=O)[O-])c[nH]c1=O as the compound, how does the Potency read?
**A.** Its Potency is “inactive”.

**Q.** With CCN(Cc1ccccc1)C(c1cc2cc(C)cc(C)c2[nH]c1=O)c1nnnn1CCOC (stereo not drawn) as the compound, how does the Potency read?
**A.** The Potency was inconclusive [inhibitor, single point].

**Q.** Which Potency does the source give for Cc1cc(=O)oc2c3c(cc(OCC(=O)N4CCC(C(=O)O)CC4)c12)OC(C)(C)CC3 here?
**A.** The Potency was inconclusive [inhibitor, full curve].

**Q.** Which Potency does the source give for O=c1[nH]c(=O)n(Cc2ccccc2)c(O)c1C=NCCN1CCOCC1 here?
**A.** The Potency was “inactive”.

**Q.** Which Potency does the source give for N/C(Cc1ccc([N+](=O)[O-])cc1)=N\OC(=O)c1ccc(Br)cc1 here?
**A.** Its Potency is inconclusive [inhibitor, partial curve, poor fit].
